Measurements as given in ChEMBL document CHEMBL4888484, “Replenishing the malaria drug discovery pipeline: Screening and hit evaluation of the MMV Hit Generation Library 1 (HGL1) against asexual blood stage Plasmodium falciparum ,using a nano luciferase reporter read-out” (2022).
Among all 150,000 compounds or so, about 540 (0.36%) showed an effect of 50% or more. The list shows a part of the results.

test system: Plasmodium falciparum; assay: Primary screen in NF54 nanoGlo assay, in single point, at 2uM, 72h; a lower Z score goes with more inhibition; assay type: functional, Erythrocyte; details: timepoint 72 hour

Row | Structure (SMILES) | % Inhibition | Z score
1 | Cc1sc2cc(C(=O)NCc3cccnc3)[nH]c2c1CN1CCCCC1 | -7% | 0.68
2 | COc1cc(C(=O)NC[C@]2(O)CCCC2(C)C)nn1C | -16% | 1.8
3 | CC[C@H](C)NC(=O)Cc1cn(CC)c2ncccc12 | -17% | 2
4 | O=C(c1cc2n(n1)CCN(c1cnccn1)C2)N1CCCC1 | -19% | 1.86
5 | CN1CCN(CC[C@H](O)c2ccc(N)cc2)CC1 | -3% | 0.42
6 | CC(C)CCNS(=O)(=O)c1ccc(-c2nc(C(C)C)cs2)s1 | -11% | 2.01
7 | CCc1cc(C(=O)N2CCN(Cc3cc(C)cc(C)c3)C(=O)C2)ccn1 | -7% | 0.98
8 | CCOC(=O)c1cnn(-c2nc(C)cc(C)n2)c1O | -4% | 0.45
9 | CCn1nccc1CN(C)C(=O)c1cc(S(=O)(=O)N(C)C)c(Cl)cc1Cl | 30% | -4
10 | CC(=O)Nc1nc(CN2CCC=C(c3ccccc3)C2)cs1 | 5% | -0.94
11 | COCCN1CC[C@H](CN(C)S(=O)(=O)Cc2ccc(Cl)cc2)C1 | -6% | 1.12
12 | N#Cc1ccccc1S(=O)(=O)N1CCC(c2nc(O)c3nnn(Cc4cccc(Cl)c4)c3n2)CC1 | -18% | 2.31
13 | Nc1nc(CNC(=O)[C@@H]2CC=CCC2)cs1 | 4% | -0.7
14 | CCc1cnc(C)nc1N1CCN[C@H](C(=O)N2CCCC2)C1 | -9% | 1.72
15 | Cc1nc([C@H]2CCOC2)cc(N2CCN(CCOc3ccccc3)CC2)n1 | -7% | 0.95
16 | C[C@]1(C(=O)N2CCNCc3ccccc32)CCOC1 | -5% | 0.47
17 | CCO[C@@H](CC)c1noc(C2(c3ccccc3)CC2)n1 | -2% | 0.46
18 | Cc1cc(C(N)=O)c(N(C)CC[C@H](C)N2CCCC2)nc1C | -4% | 0.88
19 | CN(CCc1cnccn1)C1CCC(C#N)C1 (stereo unspecified) | 0% | -0.04
20 | O=S(=O)(c1ccccc1)N(c1ccc(F)cc1)C1CCN(Cc2ccc(C(F)(F)F)cc2)CC1 | -16% | 1.51
21 | C[C@H]1COc2ccc(C(=O)NCc3nnc(C4CC4)s3)cc21 | -6% | 0.74
22 | Cc1nc(C(=O)N2CCC(NC(=O)CC3CCCC3)CC2)c(-c2ccccc2)o1 | -3% | 0.53

Row | Structure (SMILES) | % Inhibition | Z score
23 | NC(=NOCc1nnc(-c2ccc(Cl)cc2Cl)o1)C1CCCC1 | -7% | 0.99
24 | Cc1ccc(NC(=O)Cn2c(C)cc(=O)c3sccc32)cc1Cl | 35% | -4.5
25 | COCc1c(C(=O)N2CC[C@H]3C(=O)N(Cc4ccc(F)cc4)CCN3CC2)noc1C | -4% | 0.76
26 | CCCN(CCC)C(=O)[C@H](C)n1cccn1 | -1% | 0.09
27 | CC(C)(C)c1nnc(C(=O)NC[C@H]2CCCS(=O)(=O)C2)s1 | 1% | -0.11
28 | CCc1noc(C)c1-c1noc(Cn2nc(C)cc2C)n1 | -4% | 0.67
29 | O=C(NC(C1CC1)C1CC1)c1coc(COc2cccc(F)c2)n1 | -6% | 1.01
30 | CC(C)NC(=O)CN(C)[C@@H](C(N)=O)c1cccc(Br)c1 | -14% | 1.71
31 | COc1ccc([C@@H](NS(=O)(=O)N2CCOCC2)C2CC(O)C2)cn1 (stereo partly specified) | 1% | -0.15
32 | CCN(CC)CCNC(=O)[C@H](C)N1C(=O)COc2ccc(C(=O)COc3ccc(C)cc3C)cc21 | 4% | -0.56
33 | CCc1ccc(-c2nccn2-c2cccc(NC(C)=O)c2)nc1 | -5% | 0.47
34 | Cc1ccccc1-c1cc2c(N3CCN(C(=O)c4ccco4)CC3)nccn2n1 | 3% | -0.44
35 | CC(C)Cc1noc(CNC(=O)CN2CCC[C@H](O)C2)n1 | -14% | 1.45
36 | O=C(CC1CCN(C(=O)c2ccc3oc(-c4ccccc4)nc3c2)CC1)N1CCCCCC1 | -16% | 1.91
37 | OCC#Cc1ccc(-c2nccn2-c2ccc3ncsc3c2)s1 | -2% | 0.3
38 | CCCN1CCC[C@H](C(=O)NOC(C)C)C1 | -3% | 0.49
39 | CCCn1cc(CCNC(=O)CC)c2cccnc21 | -17% | 1.93
40 | COc1ccc(S(=O)(=O)CCN2C(=O)CN(C)C2=O)c(Cl)c1 | -4% | 0.6
41 | CC1CC(c2ccccc2F)N(C(=O)C2CC23CCNCC3)C1 (stereo unspecified) | -18% | 2.11
42 | CN(CC1=CCCOC1)Cc1nnc(C2CC2)n1C | -7% | 1.45
43 | COc1ccc(CN2C(=O)CO[C@H]3CN(Cc4ccccc4OC)C[C@H]32)cc1 | -11% | 2.28
44 | COC(=O)c1ccc(NC(=O)N[C@@H](C)CC#N)cc1Cl | -9% | 1.51

Row | Structure (SMILES) | % Inhibition | Z score
45 | CC(c1ccc(Cl)cc1)C(C)N(C)C(=O)CCN (stereo unspecified) | -3% | 0.45
46 | O=C(NCC[C@H]1CCCCO1)c1cccc(OC(F)F)c1 | -6% | 0.75
47 | CC#CCN1C(=O)C(=O)N(C2CCCCC2)C1=O | -4% | 0.6
48 | COCCC1(C(=O)N[C@H]2CCN(c3nc(C)cc(=O)[nH]3)C2)CCCC1 | -5% | 0.79
49 | CCC(NCc1nnc(C)s1)C1CCOC1 (stereo unspecified) | -8% | 0.75
50 | NC(=O)CCNC(=O)C1CC12CCc1cc(Br)ccc12 (stereo unspecified) | -6% | 0.56
51 | Cn1c(O)cc(=O)c2cccc(OC[C@H](O)C(C)(C)O)c21 | -6% | 0.58
52 | Cc1cc(C)c(CNC(=O)c2ccccc2OCc2csc(C)n2)c(=O)[nH]1 | -7% | 0.64
53 | COCCN1C(=O)CC[C@]2(C(=O)Nc3ccc4c(c3)OCCO4)CCCC=C12 | -8% | 0.8
54 | CCCc1ncc(C(=O)Nc2cnns2)s1 | -12% | 2.17
55 | O=C(Cc1nc(Cc2ccc(F)cc2)n[nH]1)NCc1cccc(Cl)c1 | -6% | 0.73
56 | Cc1cnc(CN2CC(c3ccccc3Cl)OCC2C)cn1 (stereo unspecified) | -5% | 1.01
57 | COc1ccc(-c2nnc(-c3cc(OC)c4c(c3)OCO4)[nH]2)cc1O | 3% | -0.38
58 | Cc1nc(C)c(CC(=O)N(C)CCn2cccn2)s1 | 3% | -0.44
59 | COc1cc2c(cc1OC)CN(C(=O)C[C@H]1CCCO1)CC2 | 2% | -0.26
60 | CC1(C)COCCN1CC1=Nc2ccccc2S(=O)(=O)N1 | -3% | 0.41
61 | CC(C)n1ccnc1CN1CCN2CCCC[C@H]2C1 | -14% | 1.39
62 | O=S(=O)(c1ccc(N2CCC(c3nc4ccccc4s3)CC2)cc1)C(F)F | 4% | -0.57
63 | CC(C)(C)C(=O)NCCN1CCOCC1 | -9% | 1.12
64 | COC[C@@H]1C[C@@H](OC)CN1c1nc(N)c2cnn(C)c2n1 | -2% | 0.24
65 | O=C1COc2c(F)cc(NC(=O)N3CCCCCC3)cc2N1 | -15% | 1.8
66 | Cc1ccc(CNC(=O)Cc2cn(C)c3ncccc23)cc1 | -16% | 1.9

Row | Structure (SMILES) | % Inhibition | Z score
67 | Cn1nc(-c2ccc(C(N)=O)c(Cl)c2)nc1N1CCCCC1 | 5% | -0.77
68 | CCCC[C@H]1CN(c2cccc(-c3ccccc3)c2)C(=O)CN1C(=O)CNC | -5% | 0.78
69 | O=C(O)C1(NCc2cc(-c3ccc(Cl)cc3)no2)CCCC1 | 11% | -1.27
70 | Cc1ccc([C@H](CNC(=O)c2ccco2)N2CCCCC2)cc1 | -6% | 1.15
71 | O=C(CN1CCCCC1=O)N1CCC[C@H](O)CC1 | 11% | -1.17
72 | O=C(CCc1conc1-c1ccc(F)cc1)NCc1ccc(F)cc1 | -4% | 0.64
73 | N#Cc1ccc(F)cc1CN1CCC[C@H](c2nncn2C2CC2)C1 | -16% | 1.41
74 | CC(C)(C)COC(=O)N1CCC2(CCC(=O)N(CCc3ccncc3)C2)CC1 | 4% | -0.56
75 | O=C([C@@H]1CCCO1)N1CCC(n2cc(CN3CCCCC3)nn2)CC1 | -18% | 1.59
76 | O=C(c1ccc(Br)cc1)N1CCC[C@H]1c1nc2ccccc2s1 | 9% | -1.16
77 | Cc1nn(C)c(C)c1S(=O)(=O)N1CCCN(c2ccc(C#N)cc2)CC1 | 3% | -0.5
78 | Cn1nc2c(c1C(=O)N1C[C@@H]3[C@H](C1)[C@H]3NC(=O)CCC1CCC1)CCC2 | -9% | 1.37
79 | c1cncc(COc2ccc(CN[C@H]3CCc4ncnn4C3)cc2)c1 | 1% | -0.17
80 | CC#CCn1ccnc1-c1cccs1 | -15% | 2.38
81 | Cc1cc(NC(=O)OC(C)(C)C)sc1C | -2% | 0.26
82 | CC(C)Cc1nnc(C(C)NC2CCN(S(C)(=O)=O)CC2C)o1 (stereo unspecified) | -1% | 0.1
83 | O=C(COCC1CCCC1)NCC(=O)N1Cc2ccccc2C1 | 2% | -0.32
84 | CCn1c(=O)c(C(=O)NCCOC)nn(-c2ccc(Cl)cc2)c1=O | 6% | -0.72
85 | CC(C)[C@H]1CN(c2nccc(N)n2)C[C@@H]1NC(=O)CCS(C)(=O)=O | 0% | -0.07
86 | O=C([C@@H]1NCCc2[nH]cnc21)N1CCN(C/C=C/c2ccccc2)CC1 | 2% | -0.46
87 | Cn1nc(C(=O)NC(c2ccccc2)c2ccccc2)c2ccccc2c1=O | -2% | 0.29
88 | Cc1cccc(NC(=O)Nc2ccc(NC(=O)c3ccco3)cc2)c1 | 3% | -0.42
